From the supplement of paper PMC8728848
Some of the results follow.

Key:
Assay in all cases: glycan array binding signal (z-score within array); higher = stronger binding
Details in all cases: glycan notation: IUPAC condensed, linker removed
[1] = target: Gal(b1-3)GlcNAc(b1-6)[Gal(b1-3)]GalNAc
Outline: (§1)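 Negative Z-scores can be read as non-binding. The Z-score is calculated within each array and then averaged across arrays of one protein sequence at different concentrations or buffers and across linkers. Arrays, 3228 in all, were curated from the Consortium for Functional Glycomics database and kept only where the protein sequence was available.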

[2] = target: Gal(b1-3)GlcNAc6S
Outline: as §1

[3] = target: Gal(b1-3)[Fuc(a1-4)]GlcNAc
Outline: as §1

[4] = target: Gal(b1-3)[Fuc(a1-4)]GlcNAc(b1-2)Man
Outline: as §1

[5] = target: Gal(b1-3)[Fuc(a1-4)]GlcNAc(b1-2)Man(a1-3)[Gal(b1-3)[Fuc(a1-4)]GlcNAc(b1-2)Man(a1-6)]Man(b1-4)GlcNAc(b1-4)[Fuc(a1-6)]GlcNAc
Outline: as §1

[6] = target: Gal(b1-3)[Fuc(a1-4)]GlcNAc(b1-3)Gal(b1-3)[Fuc(a1-4)]GlcNAc
Outline: as §1

[7] = target: Gal(b1-3)[Fuc(a1-4)]GlcNAc(b1-3)Gal(b1-4)[Fuc(a1-3)]GlcNAc
Outline: as §1

[8] = target: Gal(b1-3)[Fuc(a1-4)]GlcNAc(b1-6)GalNAc
Outline: as §1

[9] = target: Gal(b1-3)[GlcNAc(b1-6)]GalNAc
Outline: as §1

[10] = target: Gal(b1-3)[Neu5Ac(a2-6)]GalNAc
Outline: as §1

[11] = target: Gal(b1-3)[Neu5Ac(a2-6)]GlcNAc(b1-4)Gal(b1-4)Glc
Outline: as §1

[12] = target: Gal(b1-3)[Neu5Ac(b2-6)]GalNAc
Outline: as §1

[13] = target: Gal(b1-4)Gal
Outline: as §1

[14] = target: Gal(b1-4)GalNAc(a1-3)[Fuc(a1-2)]Gal(b1-4)GlcNAc
Outline: as §1

[15] = target: Gal(b1-4)GalNAc(b1-3)[Fuc(a1-2)]Gal(b1-4)GlcNAc
Outline: as §1

[16] = target: Gal(b1-4)Glc
Outline: as §1

[17] = target: Gal(b1-4)Glc6S
Outline: as §1

[18] = target: Gal(b1-4)GlcNAc
Outline: as §1

[19] = target: Gal(b1-4)GlcNAc(a1-6)Gal(b1-4)GlcNAc
Outline: as §1

[20] = target: Gal(b1-4)GlcNAc(b1-2)Man
Outline: as §1

[21] = target: Gal(b1-4)GlcNAc(b1-2)Man(a1-3)Man(b1-4)GlcNAc(b1-4)GlcNAc
Outline: as §1

[22] = target: Gal(b1-4)GlcNAc(b1-2)Man(a1-3)[Gal(b1-4)GlcNAc(b1-2)Man(a1-6)]Man(b1-4)GlcNAc(b1-4)GlcNAc
Outline: as §1

[23] = target: Gal(b1-4)GlcNAc(b1-2)Man(a1-3)[Gal(b1-4)GlcNAc(b1-2)Man(a1-6)]Man(b1-4)GlcNAc(b1-4)[Fuc(a1-6)]GlcNAc
Outline: as §1

[24] = target: Gal(b1-4)GlcNAc(b1-2)Man(a1-3)[Gal(b1-4)GlcNAc(b1-2)Man(a1-6)][Gal(b1-4)GlcNAc(b1-4)]Man(b1-4)GlcNAc(b1-4)[Fuc(a1-6)]GlcNAc
Outline: as §1

[25] = target: Gal(b1-4)GlcNAc(b1-2)Man(a1-3)[Gal(b1-4)GlcNAc(b1-2)Man(a1-6)][GlcNAc(b1-4)]Man(b1-4)GlcNAc(b1-4)[Fuc(a1-6)]GlcNAc
Outline: as §1

[26] = target: Gal(b1-4)GlcNAc(b1-2)Man(a1-3)[GlcNAc(b1-2)Man(a1-6)]Man(b1-4)GlcNAc(b1-4)GlcNAc
Outline: as §1

[27] = target: Gal(b1-4)GlcNAc(b1-2)Man(a1-3)[GlcNAc(b1-4)][Gal(b1-4)GlcNAc(b1-2)Man(a1-6)]Man(b1-4)GlcNAc(b1-4)GlcNAc
Outline: as §1

[28] = target: Gal(b1-4)GlcNAc(b1-2)Man(a1-3)[Man(a1-6)]Man(b1-4)GlcNAc(b1-4)GlcNAc
Outline: as §1

[29] = target: Gal(b1-4)GlcNAc(b1-2)Man(a1-6)Man(b1-4)GlcNAc(b1-4)GlcNAc
Outline: as §1

[30] = target: Gal(b1-4)GlcNAc(b1-2)Man(a1-6)[GlcNAc(b1-2)Man(a1-3)]Man(b1-4)GlcNAc(b1-4)GlcNAc
Outline: as §1

[31] = target: Gal(b1-4)GlcNAc(b1-2)Man(a1-6)[Man(a1-3)]Man(b1-4)GlcNAc(b1-4)GlcNAc
Outline: as §1

[32] = target: Gal(b1-4)GlcNAc(b1-2)[Gal(b1-4)GlcNAc(b1-4)]Man(a1-3)[Gal(b1-4)GlcNAc(b1-2)Man(a1-6)]Man(b1-4)GlcNAc(b1-4)GlcNAc
Outline: as §1

[33] = target: Gal(b1-4)GlcNAc(b1-2)[Gal(b1-4)GlcNAc(b1-4)]Man(a1-3)[Gal(b1-4)GlcNAc(b1-2)[Gal(b1-4)GlcNAc(b1-6)]Man(a1-6)]Man(b1-4)GlcNAc(b1-4)GlcNAc
Outline: as §1

[34] = target: Gal(b1-4)GlcNAc(b1-2)[Gal(b1-4)GlcNAc(b1-4)]Man(a1-3)[GlcNAc(b1-4)][Gal(b1-4)GlcNAc(b1-2)Man(a1-6)]Man(b1-4)GlcNAc(b1-4)GlcNAc
Outline: as §1

[35] = target: Gal(b1-4)GlcNAc(b1-2)[Gal(b1-4)GlcNAc(b1-4)]Man(a1-3)[GlcNAc(b1-4)][Gal(b1-4)GlcNAc(b1-2)[Gal(b1-4)GlcNAc(b1-6)]Man(a1-6)]Man(b1-4)GlcNAc(b1-4)GlcNAc
Outline: as §1

[36] = target: Gal(b1-4)GlcNAc(b1-2)[Gal(b1-4)GlcNAc(b1-6)]Man(a1-6)[Gal(b1-4)GlcNAc(b1-2)Man(a1-3)]Man(b1-4)GlcNAc(b1-4)GlcNAc
Outline: as §1

[37] = target: Gal(b1-4)GlcNAc(b1-2)[Gal(b1-4)GlcNAc(b1-6)]Man(a1-6)[Gal(b1-4)GlcNAc(b1-2)Man(a1-3)]Man(b1-4)GlcNAc(b1-4)[Fuc(a1-6)]GlcNAc
Outline: as §1

[38] = target: Gal(b1-4)GlcNAc(b1-2)[Gal(b1-4)GlcNAc(b1-6)]Man(a1-6)[GlcNAc(b1-4)][Gal(b1-4)GlcNAc(b1-2)Man(a1-3)]Man(b1-4)GlcNAc(b1-4)GlcNAc
Outline: as §1

[39] = target: Gal(b1-4)GlcNAc(b1-2)[Gal(b1-4)GlcNAc(b1-6)]Man(a1-6)[GlcNAc(b1-4)][Gal(b1-4)GlcNAc(b1-2)[Gal(b1-4)GlcNAc(b1-4)]Man(a1-3)]Man(b1-4)GlcNAc(b1-4)[Fuc(a1-6)]GlcNAc
Outline: as §1

[40] = target: Gal(b1-4)GlcNAc(b1-3)Gal(b1-3)GalNAc
Outline: as §1

[41] = target: Gal(b1-4)GlcNAc(b1-3)Gal(b1-3)GlcNAc
Outline: as §1

[42] = target: Gal(b1-4)GlcNAc(b1-3)Gal(b1-4)Glc
Outline: as §1

[43] = target: Gal(b1-4)GlcNAc(b1-3)Gal(b1-4)GlcNAc
Outline: as §1

[44] = target: Gal(b1-4)GlcNAc(b1-3)Gal(b1-4)GlcNAc(b1-2)Man(a1-3)[Gal(b1-4)GlcNAc(b1-3)Gal(b1-4)GlcNAc(b1-2)Man(a1-6)]Man(b1-4)GlcNAc(b1-4)GlcNAc
Outline: as §1

[45] = target: Gal(b1-4)GlcNAc(b1-3)Gal(b1-4)GlcNAc(b1-2)Man(a1-3)[Gal(b1-4)GlcNAc(b1-3)Gal(b1-4)GlcNAc(b1-2)Man(a1-6)]Man(b1-4)GlcNAc(b1-4)[Fuc(a1-6)]GlcNAc
Outline: as §1

B1: PX9961X-pdi-531-24-531 (Parabacteroides distasonis) (protein)
chain: DLTEEIHSSVIAENYYNNAGEVMAAMMRPWGHFCGTMQVAQSPWSCNELSSDCAAWPQKGRHGYDNGDWIRLHRHQWIPTDGQVVDAWKKLFEGIGYANNFLTDTENIDFEALQVPMSKAQAQAEMRVYRAYCYWYVMDMFGTAPICEKIGEINPSSKSRAELFAWIEKELNESIPSLSESKTETYGRVSKWGAYALLARLYLNAEIYTGQARWDDCIAACDELAKGGFALDKKWNDTFRADNDKRSTEIIWSIVYDEVYAKGMGWYQRWLHYAHQTGWDLQSGPWNGLVTQPTFYDSFADNDLRKIEGFLIGKQYPRKVDENGNYYYDTTAEPLKGSEEYNGQDLVFVNYIKSMTEGEENSGARSIKYEIQPGTTGDMNNDWVMFRYSEVIYNKAEALMRKNGGKATQEVVDMINSVRQRSFKAEDWEKAKYTTATLTMDEFLAEKGREFAFEGIRRTDLVRFNKFVTTSWWDKTASNEPKRNIFPIPQRQLDANANLSPNEANSLF
Question: How did the “glycan array binding signal (z-score)” value [1] turn out when B1 was run?
Answer: The value was 0.663.

Question: And the “glycan array binding signal (z-score)” value [2]?
Answer: Its value is -0.444.

Question: What about the “glycan array binding signal (z-score)” value [3] of the same binder?
Answer: Its value is -0.465.

Question: What about the “glycan array binding signal (z-score)” value [4] of the same binder?
Answer: Its value is 0.539.

Question: What about the “glycan array binding signal (z-score)” value [5] of the same binder?
Answer: Its value is 0.756.

Question: And the “glycan array binding signal (z-score)” value [6]?
Answer: The value was -0.606.

Question: What about the “glycan array binding signal (z-score)” value [7] of the same binder?
Answer: Its value is -0.466.

Question: And the “glycan array binding signal (z-score)” value [8]?
Answer: Its value is 0.118.

Question: And the “glycan array binding signal (z-score)” value [9]?
Answer: Its value is 0.287.

Question: And the “glycan array binding signal (z-score)” value [10]?
Answer: The value was -0.162.

Question: And the “glycan array binding signal (z-score)” value [11]?
Answer: The value was -0.575.

Question: And the “glycan array binding signal (z-score)” value [12]?
Answer: The value was -0.831.

Question: And the “glycan array binding signal (z-score)” value [13]?
Answer: Its value is -0.436.

Question: What about the “glycan array binding signal (z-score)” value [14] of the same binder?
Answer: The value was -0.606.

Question: What about the “glycan array binding signal (z-score)” value [15] of the same binder?
Answer: Its value is 0.019.

Question: And the “glycan array binding signal (z-score)” value [16]?
Answer: The value was 0.099.

Question: What about the “glycan array binding signal (z-score)” value [17] of the same binder?
Answer: Its value is 1.04.

Question: And the “glycan array binding signal (z-score)” value [18]?
Answer: Its value is -0.188.

Question: What about the “glycan array binding signal (z-score)” value [19] of the same binder?
Answer: Its value is 0.827.

Question: What about the “glycan array binding signal (z-score)” value [20] of the same binder?
Answer: The value was 0.413.

Question: And the “glycan array binding signal (z-score)” value [21]?
Answer: The value was 0.054.

Question: And the “glycan array binding signal (z-score)” value [22]?
Answer: The value was -0.85.

Question: What about the “glycan array binding signal (z-score)” value [23] of the same binder?
Answer: Its value is 0.562.

Question: What about the “glycan array binding signal (z-score)” value [24] of the same binder?
Answer: The value was -0.513.

Question: And the “glycan array binding signal (z-score)” value [25]?
Answer: Its value is -0.474.

Question: What about the “glycan array binding signal (z-score)” value [26] of the same binder?
Answer: Its value is -0.26.

Question: What about the “glycan array binding signal (z-score)” value [27] of the same binder?
Answer: Its value is 0.027.

Question: And the “glycan array binding signal (z-score)” value [28]?
Answer: The value was 0.551.

Question: What about the “glycan array binding signal (z-score)” value [29] of the same binder?
Answer: Its value is -0.241.

Question: And the “glycan array binding signal (z-score)” value [30]?
Answer: The value was 0.345.

Question: And the “glycan array binding signal (z-score)” value [31]?
Answer: Its value is 0.523.

Question: What about the “glycan array binding signal (z-score)” value [32] of the same binder?
Answer: The value was 0.522.

Question: What about the “glycan array binding signal (z-score)” value [33] of the same binder?
Answer: The value was -0.365.

Question: What about the “glycan array binding signal (z-score)” value [34] of the same binder?
Answer: The value was -0.689.

Question: And the “glycan array binding signal (z-score)” value [35]?
Answer: Its value is 0.12.

Question: What about the “glycan array binding signal (z-score)” value [36] of the same binder?
Answer: The value was 0.351.

Question: What about the “glycan array binding signal (z-score)” value [37] of the same binder?
Answer: The value was 1.04.

Question: What about the “glycan array binding signal (z-score)” value [38] of the same binder?
Answer: Its value is 1.62.

Question: What about the “glycan array binding signal (z-score)” value [39] of the same binder?
Answer: The value was 0.08.

Question: And the “glycan array binding signal (z-score)” value [40]?
Answer: The value was -0.321.

Question: And the “glycan array binding signal (z-score)” value [41]?
Answer: Its value is -0.526.

Question: What about the “glycan array binding signal (z-score)” value [42] of the same binder?
Answer: The value was -0.243.

Question: What about the “glycan array binding signal (z-score)” value [43] of the same binder?
Answer: The value was -0.417.

Question: And the “glycan array binding signal (z-score)” value [44]?
Answer: The value was 0.687.

Question: And the “glycan array binding signal (z-score)” value [45]?
Answer: The value was -0.13.
